Binding data for four substances are collected here from PMC5093460.

The chains behind the UniProt entries cited, without tags or fusion partners. Where a name states a change or a piece, a line headed by the entry shows the natural chain unless it says otherwise. Residues count along the entry.
UniProt O95398, residues 43-923: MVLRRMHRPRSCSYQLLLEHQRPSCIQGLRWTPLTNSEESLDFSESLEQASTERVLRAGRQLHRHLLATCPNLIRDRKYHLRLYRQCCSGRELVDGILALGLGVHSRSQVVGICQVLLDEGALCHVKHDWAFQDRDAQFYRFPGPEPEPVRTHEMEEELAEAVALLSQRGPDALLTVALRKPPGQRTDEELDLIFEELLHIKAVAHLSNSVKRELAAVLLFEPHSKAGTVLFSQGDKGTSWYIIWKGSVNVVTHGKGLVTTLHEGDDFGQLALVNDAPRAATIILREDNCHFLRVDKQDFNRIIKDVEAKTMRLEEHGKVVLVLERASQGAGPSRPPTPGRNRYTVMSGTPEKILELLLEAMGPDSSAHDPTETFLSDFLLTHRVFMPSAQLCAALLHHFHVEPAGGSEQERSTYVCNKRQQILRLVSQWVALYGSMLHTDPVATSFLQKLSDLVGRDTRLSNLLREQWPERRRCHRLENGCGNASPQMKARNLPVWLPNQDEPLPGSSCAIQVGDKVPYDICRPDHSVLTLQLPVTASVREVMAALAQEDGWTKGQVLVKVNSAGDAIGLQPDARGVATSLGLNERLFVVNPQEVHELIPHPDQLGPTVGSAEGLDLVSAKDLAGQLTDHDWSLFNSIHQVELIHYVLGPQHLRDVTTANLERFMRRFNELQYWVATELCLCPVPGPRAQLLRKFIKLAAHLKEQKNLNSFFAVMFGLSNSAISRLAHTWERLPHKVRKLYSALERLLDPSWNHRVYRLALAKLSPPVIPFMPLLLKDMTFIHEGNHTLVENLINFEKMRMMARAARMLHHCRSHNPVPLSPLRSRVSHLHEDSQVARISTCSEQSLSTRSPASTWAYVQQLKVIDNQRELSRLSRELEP
UniProt Q8WZA2: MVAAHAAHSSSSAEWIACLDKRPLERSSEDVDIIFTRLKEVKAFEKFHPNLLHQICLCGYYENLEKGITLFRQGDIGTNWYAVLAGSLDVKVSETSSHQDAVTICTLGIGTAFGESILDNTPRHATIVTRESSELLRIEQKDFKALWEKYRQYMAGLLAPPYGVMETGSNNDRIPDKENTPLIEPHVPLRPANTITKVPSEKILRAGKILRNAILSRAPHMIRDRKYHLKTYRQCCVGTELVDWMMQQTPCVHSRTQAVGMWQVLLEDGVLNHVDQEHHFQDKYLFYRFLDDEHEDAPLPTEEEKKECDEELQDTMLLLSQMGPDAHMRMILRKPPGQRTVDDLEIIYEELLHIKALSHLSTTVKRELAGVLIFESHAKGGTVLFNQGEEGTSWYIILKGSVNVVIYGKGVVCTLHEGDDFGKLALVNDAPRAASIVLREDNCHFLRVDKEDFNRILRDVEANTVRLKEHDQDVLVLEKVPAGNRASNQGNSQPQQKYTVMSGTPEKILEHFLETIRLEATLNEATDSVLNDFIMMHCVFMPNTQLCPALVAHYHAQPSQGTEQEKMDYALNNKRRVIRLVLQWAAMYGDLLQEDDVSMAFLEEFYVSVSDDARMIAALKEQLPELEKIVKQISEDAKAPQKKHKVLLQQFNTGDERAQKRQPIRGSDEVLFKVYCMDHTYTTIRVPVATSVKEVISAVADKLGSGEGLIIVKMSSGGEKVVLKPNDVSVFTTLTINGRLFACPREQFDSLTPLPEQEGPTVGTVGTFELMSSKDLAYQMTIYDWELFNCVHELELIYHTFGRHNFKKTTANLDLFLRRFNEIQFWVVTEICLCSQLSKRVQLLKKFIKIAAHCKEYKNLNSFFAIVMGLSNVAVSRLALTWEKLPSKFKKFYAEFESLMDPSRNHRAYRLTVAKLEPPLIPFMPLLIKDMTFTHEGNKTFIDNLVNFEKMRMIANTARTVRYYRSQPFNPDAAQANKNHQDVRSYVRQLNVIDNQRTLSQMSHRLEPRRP
UniProt Q14974: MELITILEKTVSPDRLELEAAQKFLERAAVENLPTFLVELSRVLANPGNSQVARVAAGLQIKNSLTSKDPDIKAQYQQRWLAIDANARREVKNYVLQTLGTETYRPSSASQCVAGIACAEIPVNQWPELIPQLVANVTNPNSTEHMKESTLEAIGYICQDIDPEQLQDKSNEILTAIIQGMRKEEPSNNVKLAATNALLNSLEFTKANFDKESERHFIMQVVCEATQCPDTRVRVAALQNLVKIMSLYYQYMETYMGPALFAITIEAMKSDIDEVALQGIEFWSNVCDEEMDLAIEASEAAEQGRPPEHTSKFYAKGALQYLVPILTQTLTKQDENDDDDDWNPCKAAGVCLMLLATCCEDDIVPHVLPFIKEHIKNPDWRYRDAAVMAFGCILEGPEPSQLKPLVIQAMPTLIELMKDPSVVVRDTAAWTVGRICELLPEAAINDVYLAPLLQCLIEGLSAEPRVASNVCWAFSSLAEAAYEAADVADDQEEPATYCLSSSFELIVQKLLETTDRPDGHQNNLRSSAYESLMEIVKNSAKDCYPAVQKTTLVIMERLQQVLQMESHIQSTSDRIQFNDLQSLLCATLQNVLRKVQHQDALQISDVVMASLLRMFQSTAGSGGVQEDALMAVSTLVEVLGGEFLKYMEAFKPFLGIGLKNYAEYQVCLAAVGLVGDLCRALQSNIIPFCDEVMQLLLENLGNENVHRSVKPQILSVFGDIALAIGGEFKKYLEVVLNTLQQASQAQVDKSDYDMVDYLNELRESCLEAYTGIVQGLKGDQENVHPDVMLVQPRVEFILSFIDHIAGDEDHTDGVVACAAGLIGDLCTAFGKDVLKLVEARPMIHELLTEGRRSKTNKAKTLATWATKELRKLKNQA
UniProt P70168: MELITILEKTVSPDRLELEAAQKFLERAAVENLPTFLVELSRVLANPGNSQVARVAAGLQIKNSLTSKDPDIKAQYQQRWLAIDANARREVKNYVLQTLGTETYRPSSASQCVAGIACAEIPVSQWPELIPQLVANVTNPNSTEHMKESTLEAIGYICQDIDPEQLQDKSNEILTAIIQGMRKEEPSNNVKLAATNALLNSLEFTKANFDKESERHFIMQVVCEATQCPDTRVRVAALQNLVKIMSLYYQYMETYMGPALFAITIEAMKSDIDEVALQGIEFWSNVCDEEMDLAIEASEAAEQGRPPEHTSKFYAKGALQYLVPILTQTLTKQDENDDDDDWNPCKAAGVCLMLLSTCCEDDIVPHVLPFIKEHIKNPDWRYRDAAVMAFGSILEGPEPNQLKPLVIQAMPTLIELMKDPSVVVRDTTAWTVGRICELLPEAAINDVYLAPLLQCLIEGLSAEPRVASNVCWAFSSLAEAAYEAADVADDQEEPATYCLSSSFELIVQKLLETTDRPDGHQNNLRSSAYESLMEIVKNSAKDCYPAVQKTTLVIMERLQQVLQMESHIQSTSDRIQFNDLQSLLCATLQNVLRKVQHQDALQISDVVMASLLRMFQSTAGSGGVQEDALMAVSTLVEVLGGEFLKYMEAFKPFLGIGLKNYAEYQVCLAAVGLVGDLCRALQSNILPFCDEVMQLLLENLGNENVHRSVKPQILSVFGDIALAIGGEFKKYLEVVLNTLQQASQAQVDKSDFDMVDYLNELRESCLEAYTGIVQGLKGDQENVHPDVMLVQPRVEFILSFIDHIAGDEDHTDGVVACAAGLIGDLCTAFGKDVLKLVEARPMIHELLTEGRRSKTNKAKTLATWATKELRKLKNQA

No constants are given. Whether binding was seen depends on the method and setting. Binding seen in cells or lysates may run through a third protein. Some binding calls cover weakened binding; strength is not graded here.

In test [1] the target is YFP-Epac1 (exchange protein directly activated by cAMP-1), expressed in HEK293 cells (UniProt O95398). The test is described as follows: co-IP; GFP-Trap_A beads, 2 hrs, with HEK293 lysates (10 mM Tris-HCl pH 7.5, 150 mM NaCl, 1 mM EDTA, 0.5% NP-40); western blot with impβ1 and GFP antibodies. Background: A western blot detects proteins with antibodies after separation by electrophoresis.

In test [2] the target is YFP-Epac2, expressed in HEK293 cells (UniProt Q8WZA2). The test is described as above.
Test [3] addresses importin β1 (impβ1), endogenous in HEK293 cells (human (endogenous in HEK293)) (UniProt Q14974). The test is described as follows: co-IP; impβ1 antibody (1 μg, 1 hr, 4 °C) and protein G-sepharose with lysates of cells expressing HA-Epac1 or control vector, pre-cleared with IgG; western blot with impβ1 and Epac1 antibodies.
In test [4] the target is YFP-Epac1, expressed in N2A cells (UniProt O95398). The test is described as follows: co-IP; GFP-Trap_A beads with N2A lysates; western blot for impβ1; in Fig. 2B cells treated with vehicle or 10 μM 8-pCPT-AM for 15 min (the agonist reduced the interaction).
In test [5] the target is Epac1, endogenous in EA.hy926 cells (human (endogenous in EA.hy926)) (UniProt O95398). The test is described as follows: co-IP; endogenous Epac1 precipitated with Epac1 antibody (A-5, 1 μg, overnight) and protein A-sepharose from EA.hy926 lysates pre-cleared with IgG; western blot with Epac1 and impβ1 antibodies.

With “importin β1 (impβ1), endogenous in HEK293 cells (from UniProt Q14974 1-876)”, the binding result in test [1] is “binds”; in test [2] it was “no binding”.

For the substance HA-Epac1 (from UniProt O95398-3 1-881), the binding entry in test [3] is listed as “binds”.

For “importin β1 (impβ1), endogenous in N2A cells (from UniProt P70168 1-876)”, the binding result in test [4] is “binds”.

Consider “importin β1 (impβ1), endogenous in EA.hy926 cells (from UniProt Q14974 1-876)”, for which the binding result in test [5] is “binds”.
